Assay results: the supplement of paper PMC4604168 (melanoma cell lines)
The other results are listed elsewhere or left out. Most values come without repeats; read them as rough.

The compounds below were run on C32 (assay: cell count relative to DMSO control; melanoma cells; higher = more viable cells). Conditions: library dose: low library concentration; 72 h.
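Note: cell number obtained by counting DAPI-stained nuclei in high-throughput microscope images with image analysis software, screen run in 1,536-well plates.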

Row | Compound | cell count [%]
1 | O=C(CCCCCCC(=O)Nc1ccccc1)NO [vorinostat] + CC(C)CCN1c2nc(Nc3cc(F)c(O)c(F)c3)ncc2N(C)C(=O)C1C [BID1870] (first compound 0.08 µM, partner dose 0.2 µM) | 103
2 | Cn1c(Nc2ccc(C(F)(F)F)cc2)nc2cc(Oc3ccnc(-c4ncc(C(F)(F)F)[nH]4)c3)ccc21 + Cn1cc(/C=C2\C(=O)Nc3cccnc32)c2ccccc21 [GW441756] (first compound 0.08 µM, partner dose 0.4 µM) | 78.9
3 | Nc1cccc2c1CN(C1CCC(=O)NC1=O)C2=O (stereo unspecified) [lenalidomide] + O=c1cc(-c2cccc3c2Sc2ccccc2S3)oc(N2CCOCC2)c1 [KU55933] (first compound 1 µM, partner dose 1 µM) | 90.9
4 | O=C(CCCCCCC(=O)Nc1ccccc1)NO [vorinostat] + COc1cc2ncnc(Nc3ccc(Oc4ccccc4)cc3)c2cc1OC [SrcI1] (first compound 0.08 µM, partner dose 2 µM) | 116
5 | Nc1cccc2c1CN(C1CCC(=O)NC1=O)C2=O (stereo unspecified) [lenalidomide] + CC(C)CCN1c2nc(Nc3cc(F)c(O)c(F)c3)ncc2N(C)C(=O)C1C [BID1870] (first compound 1 µM, partner dose 0.2 µM) | 102
6 | C#Cc1cccc(Nc2ncnc3cc(OCCOC)c(OCCOC)cc23)c1 [erlotinib] + Cn1cc(/C=C2\C(=O)Nc3cccnc32)c2ccccc21 [GW441756] (first compound 0.8 µM, partner dose 0.4 µM) | 105
7 | COCC[n+]1c2c(n(Cc3cnccn3)c1C)C(=O)c1ccccc1C2=O + Cn1cc(/C=C2\C(=O)Nc3cccnc32)c2ccccc21 [GW441756] (first compound 0.0004 µM, partner dose 0.4 µM) | 99.4
8 | COCC[n+]1c2c(n(Cc3cnccn3)c1C)C(=O)c1ccccc1C2=O + CCCCCCCCCCCC1=C(O)C(=O)C=C(O)C1=O [Embelin] (first compound 0.0004 µM, partner dose 1.2 µM) | 81.5
9 | O=C(CCCCCCC(=O)Nc1ccccc1)NO [vorinostat] + COc1cc(N2CCC(N3CCN(C)CC3)CC2)ccc1Nc1ncc(Cl)c(Nc2ccccc2S(=O)(=O)C(C)C)n1 [NVP-TAE684] (first compound 0.08 µM, partner dose 0.08 µM) | 103
10 | Nc1cccc2c1CN(C1CCC(=O)NC1=O)C2=O (stereo unspecified) [lenalidomide] + O=S(=O)(c1ccccc1)N(CC(F)(F)F)c1ccc(C(O)(C(F)(F)F)C(F)(F)F)cc1 [T0901317] (first compound 1 µM, partner dose 1.4 µM) | 85.6
11 | Cn1c(Nc2ccc(C(F)(F)F)cc2)nc2cc(Oc3ccnc(-c4ncc(C(F)(F)F)[nH]4)c3)ccc21 + COc1ccc2c(c1)CCC1C2CCC2(C)C(NCCCCCCN3C(=O)C=CC3=O)CCC12 [U73122] (first compound 0.08 µM, partner dose 0.4 µM) | 80
12 | Cn1c(Nc2ccc(C(F)(F)F)cc2)nc2cc(Oc3ccnc(-c4ncc(C(F)(F)F)[nH]4)c3)ccc21 + O=C1NC(=O)/C(=C/c2ccc(-c3ccc(F)cc3O)o2)S1 [AS252424] (first compound 0.08 µM, partner dose 1 µM) | 73.5
13 | COCC[n+]1c2c(n(Cc3cnccn3)c1C)C(=O)c1ccccc1C2=O + O=c1cc(-c2cccc3c2Sc2ccccc2S3)oc(N2CCOCC2)c1 [KU55933] (first compound 0.0004 µM, partner dose 1 µM) | 87.4
14 | O=C(CCCCCCC(=O)Nc1ccccc1)NO [vorinostat] + COc1ccc2c(c1)CCC1C2CCC2(C)C(NCCCCCCN3C(=O)C=CC3=O)CCC12 [U73122] (first compound 0.08 µM, partner dose 0.4 µM) | 106
15 | C#Cc1cccc(Nc2ncnc3cc(OCCOC)c(OCCOC)cc23)c1 [erlotinib] + c1cc(-c2cnn3cc(-c4ccc(OCCN5CCCCC5)cc4)cnc23)ccn1 [Dorsomorphin] (first compound 0.8 µM, partner dose 0.4 µM) | 93.5
16 | C#Cc1cccc(Nc2ncnc3cc(OCCOC)c(OCCOC)cc23)c1 [erlotinib] + COc1cc2ncnc(Nc3ccc(Oc4ccccc4)cc3)c2cc1OC [SrcI1] (first compound 0.8 µM, partner dose 2 µM) | 101
